Reference: PubChem BioAssay AID1466 (National Center for Advancing Translational Sciences (NCATS), 2008)
Among all 200,000 compounds or so, about 10 (0.005%) were called active. The shares of active, inactive and inconclusive entries below differ from those in the screen. The call rests on the fitted dose curve; in most records, active means well fitted inhibition curve with a large enough effect; inconclusive means small, poorly fitted or top-dose-only effect, or effect the other way, or another doubt; inactive means no such curve, though single readings can be large or run the other way. A potency beside an inconclusive call is a rough fit, not a confirmed value.

What follows are molecules tested against Lysosomal alpha-glucosidase (Homo sapiens) (UniProt P10253) (assay: qHTS Assay for Inhibitors of Human alpha-Glucosidase as a Potential Chaperone Treatment of Pompe Disease). Conditions: purified human GAA, 4-MU-alpha-glucoside fluorescence; activity change, negative = inhibition: at 76.9 µM (top of the series) unless noted.
Method in brief: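 Compounds are titrated up to 77 uM against 4 nM human enzyme. Substrate 4-methylumbelliferyl-alpha-D-pyranoside (400 uM) reacts 20 min at room temperature in pH 5.0 buffer; liberated 4-methylumbelliferone is read at 440 nm.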
Potency means the concentration at half of the fitted maximal effect; tags describe the fitted curve by direction and shape.
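Wherever activity change, negative = inhibition is given: plate controls were uninhibited enzyme wells for no effect and no-enzyme background for full effect.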

Activity change, negative = inhibition, inconclusive:
CC(NC(=O)NC(N)=O)(C(F)(F)F)C(F)(F)F 15.3% [activator], COc1ccc(-n2nc3ccc(NS(C)(=O)=O)cc3n2)cc1Cl 16.2% [activator], CCCCNC(=O)c1c[nH]c2ccc(S(=O)(=O)N3CCOCC3)cc2c1=O -19.9% [inhibitor], Cc1ccc(OCC(=O)Nc2ccc3c(c2)OCO3)c(C)c1 20% [activator], Cn1c(=O)c(=O)n(C)c2cc([N+](=O)[O-])c([N+](=O)[O-])cc21 1.83% [activator], COc1ccc(-c2cc(C(=O)OCC(=O)c3c(N)n(C)c(=O)n(C)c3=O)c3ccccc3n2)cc1 17.6% [activator], CCCCCCNc1nc(-c2ccc(OC)cc2)c(CCC(=O)O)s1 -17.4% [inhibitor], O=C(Nc1ccc(Cl)cc1)N1CCSc2ccccc21 10% [activator]

Activity change, negative = inhibition, inactive:
COc1ccc(-c2n[nH]c(C)c2-c2ccc(Cl)cc2)c(O)c1 -1.24%

Potency, inconclusive:
COc1ccc(OC)c2[nH]c(=O)c(CCNC(=O)c3ccc(S(=O)(=O)N4CCCCC4)cc3)cc12 10 µM [inhibitor, partial curve], CC(C)(NC(=O)N1CCCC1)c1cccc(C(C)(C)NC(=O)N2CCCC2)c1 31.6 µM [inhibitor, partial curve, poor fit], Cc1ccc(C)c2[nH]c(=O)c(CCNC(=O)c3ccc(S(=O)(=O)N(C)C)cc3)cc12 39.8 µM [inhibitor, partial curve, poor fit], O=S(=O)(c1ccccc1)c1cnn2c(C(F)(F)F)cc(-c3ccc(F)cc3)nc12 39.8 µM [activator, partial curve], COC(=O)c1cc(OC)c(OC)cc1NC(=O)Nc1ccccc1OC 22.4 µM [activator, single point], O=C1c2ccccc2C2=Nc3ccccc3SC(c3ccccc3F)C12 (stereo not drawn) 25.1 µM [inhibitor, partial curve, poor fit], CC1(C)CC(=O)CC(C2(O)C(=O)N(Cc3ccccc3)c3ccccc32)O1 (stereo not drawn) 31.6 µM [inhibitor, single point], O=C(N/N=C/c1cccnc1)c1cc2c(ccc3ccccc32)o1 28.2 µM [inhibitor, single point], COc1ccccc1OCc1nc(C#N)c(N2CC(C)CC(C)C2)o1 (stereo not drawn) 56.2 µM [inhibitor, single point]
